Assay results reported in the supplement of paper PMC11417369.
This is one part of the list.

tested on: PfAP2-HC AP2 domain (GST-tagged); assay: gcPBM binding intensity (ln(normalized median fluorescence intensity)); higher = stronger DNA binding
Outline: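 Probes on an Agilent 4 × 180k array were primer-extended, double-stranded and 36 bp long, taken from intergenic genomic regions, with negative controls added. GST-tagged P. falciparum DNA-binding domains from E. coli, about 25 μg on average, were applied to the array for 1 h in 1× PBS containing 1% milk, 0.2 mg/ml BSA, 0.5% salmon testes DNA and 0.03% Triton X-100. Binding intensity, obtained after Alexa488 anti-GST antibody detection and a 488 nm scan, is the highest Masliner-normalised natural-log median intensity across replicate spots of either probe orientation.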

Sequence | gcPBM binding intensity (ln)
ATATTTCATCTAGCTACACACATATAACAAATTACT [CACACA_site7843] | 9.91
TACATAAAAATATCACGTACATATAATCATATACTA [XGTACX_site3505] | 9.57
ACCTTTGATATATACACACACATAAAAAAAATATAT [CACACA_site6952] | 10.1
AAAAAAAAAAAAAAAACACACATACACCCCCACCCA [CACACA_site9117] | 10.2
TATAAATATAAATACACACACACATCAATACAGATA [CACACA_site5850] | 11
ATTAATAATATTCCTTGTACATGATTTTTCTAAATA [XGTACX_site7099] | 9.54
TGTGTTAATAGAAAAAGTACATATACATATATATAT [XGTACX_site4951] | 9.65
TGCACAGACGGACACACACACAACTAAAAAATAATG [CACACA_site5424] | 10.7
TATAATAATGCCTTTACATGCAATAATAAAGAAATA [TGCATGCA_site631] | 9.55
AATGAATTAATAGCTACACACGGTAACATAATAACT [CACACA_site851] | 9.92
TCTTTTGAACAAATTTGTACGTATATAAAAATATTT [XGTACX_site6547] | 9.54
TATAAATACTTATATGTACACACATATAGATATATA [CACACA_site8819] | 9.64
CGCATACACCAACACACACACACATATATATATATA [CACACA_site635] | 10.5
AGAAGTCTGTAATGATGTACTGGAAAAATATAAATA [XGTACX_site8148] | 9.56
TAGATCTTATTTACAAGTACATATATACGATTCATT [XGTACX_site7578] | 9.54
ATCTAATATATATTCTGTACGTAATTAAAACCACAA [XGTACX_site3152] | 9.53
ATGTTGTCAAAAAAATGTACTTACATAATATTTTCC [XGTACX_site1732] | 9.53
ATATATATATATATTTGTACATATATATAATTTTTC [XGTACX_site7460] | 9.53
TATAATTGTCTTCACACACACATATATATATATATA [CACACA_site2743] | 10.1
AAAATAAAAAAAAAAGGTACACAAAAAGATGGACTG [XGTACX_site2650] | 9.77
TTTTTTTTTTAAAAAACACACACCTAAACAAGATAT [CACACA_site875] | 10
AAATTAATTAAATATACACACATATATAAATATATA [CACACA_site391] | 9.99

Sequence | gcPBM binding intensity (ln)
ATATATATATAAAGTTGTACATTTTTTATTTTTTCA [XGTACX_site7847] | 9.6
TTGTTTTTAGTTTATACACACCATATTAATATAATG [CACACA_site7452] | 9.86
ATTTGGCATGGACACACACACACACCGACAGACATA [CACACA_site4491] | 11.4
TTATATTATGGACACACACACAAAAAAAAAAAAAAA [CACACA_site7744] | 10.3
TATATATATATGTATACACACATATGTATGTTATGT [CACACA_site4053] | 9.91
GCATAATATACTCTTACACACCATTTCTATATACAT [CACACA_site6799] | 10
TTTGTTAATTATAAATGTACATATTATATATATATA [XGTACX_site8870] | 9.56
TTAAAACCAAAACACAGTACATATATATATATATAT [XGTACX_site5668] | 9.61
CAATTTTAAGTAATCAATTTTTTTAAAAAACACAAA [CACACA_negctrl_site961] | 9.39
AAAATATATTATATATGTACATATTACGTTTTAATT [XGTACX_site2518] | 9.79
TTAATATTAATATATTGTACATATATGCACATATTT [XGTACX_site6569] | 9.74
AATATTATAATATAAACACACAAAATTCAATTATAT [CACACA_site3789] | 9.95
AACGTTCATATTTCCACACACAAAAAATAAATATAA [CACACA_site3344] | 10
AAAAATAAAGGGCGAAAAAAAAAAAAAAAAAAAAAA [GTGCAC_negctrl_site671] | 8.69
CTTGTATTTAAACACACACACACTTTCTTTTTTTAA [CACACA_site5133] | 10.5
TTGATGATATAAAAAAGTACTTATATTATATTATAT [XGTACX_site6492] | 9.55
TTTCCTATTTAATATAGTACATAAGAAATAATTTTA [XGTACX_site5952] | 9.18
ATATTTTATTATTGTTGTACTTTTTTTTGATTGTTT [XGTACX_site4090] | 9.88
TTGACACGTATATGCACACACCCGTAAGTGTCCATT [CACACA_site2764] | 10
TTTTTTATGAACACGTCACACATCATTAAAATGTTT [CACACA_site5934] | 9.67
AGTTATAAACATATGTGTACTTATAAAAACATATAG [XGTACX_site3268] | 9.82
TTTAATATTTTTCAATGTAGAAAGTTTGTCTGTTAT [CACACA_negctrl_site973] | 9.51

Sequence | gcPBM binding intensity (ln)
TCACACATATATTCATGTACATATTAATATTTCCAT [XGTACX_site5387] | 9.85
AAAAAAAGTAAATGTTGTACTATAATATGTAATATA [XGTACX_site7966] | 9.62
AACCACATACATATAACACACATATACAATCTATAT [CACACA_site1987] | 10.4
TACATATATATTATATGTACTTATATTTTTATAATA [XGTACX_site3452] | 9.61
ATATACATATCCATATTTATATCTATATTTAAAACA [CACACA_negctrl_site747] | 9.49
AAATAACACTAATGATGTACTCAACTATTTATAATT [XGTACX_site8183] | 9.66
TATGAAATTTTAATTACACACAGGAAAATAAAATGG [CACACA_site4935] | 9.74
TAAAAAAAATATTTTTGTACGAATTAAATTTTTTTT [XGTACX_site4838] | 9.35
ACATATTTTTAATACACACTCAAAAAAGTACTTAAC [CACACA_site3014] | 9.69
TATTTACACCTAATCACAAATAAAATAAAATCAAAT [CACACA_negctrl_site531] | 9.59
ACATATAAATAAATAAATATATATATATATATATAT [GTGCAC_negctrl_site378] | 9.8
TTTTTATAACTATATTATATAACTTTTGTACGAACT [CACACA_negctrl_site1423] | 9.8
TAAATCAAAATAATTTAACACACAATTTTAATACTG [CACACA_site8744] | 9.7
GATAAGGTATTCAAATGTACAAAATGTTTTATATAA [XGTACX_site6863] | 9.59
TATATGATATAATATACACACATACAGATATATATA [CACACA_site4440] | 9.89
AAATTATTAAGTGATATAATATTCTATAGATGGGGA [CACACA_negctrl_site168] | 9.66
TTTTCCAATTTAAAAGCATGCATCTGTTTTTTTTTT [TGCATGCA_site482] | 9.53
TAGAGGTATAAAATATGTACTTATAAAAACATGAAT [XGTACX_site8916] | 9.64
AGAGGTAGAGAGAAAACATGCATAATGATTTTCATA [TGCATGCA_site958] | 9.56
ATATATATTATATAAGTGCATAATATTCTTTCTTTT | 9.61
TTTTTTTATCAATGTTGTACTTTTTTTTTTTTCCAT [XGTACX_site8864] | 9.67
TATATATTTTGTGTCTGTACACATATTATTAATTCC [XGTACX_site7507] | 9.67

Sequence | gcPBM binding intensity (ln)
TTCAAATATAAATACACACACATAGCTACAAAATAA [CACACA_site4172] | 11
TACACGCATGGACACACACACACACCCATATATATA [CACACA_site4522] | 11
TATAAGAGAATATATACACACAAAAATATATACAGT [CACACA_site1668] | 10.1
TTCTTAAAAGGAAAGGTGCAACTTTATCATTTTCTT | 9.45
TAAATACATAAATACACACACATATATTATATATAT [CACACA_site4310] | 10.9
ATATTAACTATCATAACACACACAGTAGACATATTT [CACACA_site6941] | 10.3
TATCATATATAAAGAGGTACGTAAGAATAGAAAATT [XGTACX_site798] | 9.99
TATAATTATATGTATACACACACATACATTTACATA [CACACA_site9061] | 10.5
AAAATGAAAATGAAAATGAAAATGGGAAAATGTCAA [TGCATGCA_negctrl_site488] | 9.83
TTATATATAAGTTTATTCATTTTTTTTTTTTTTTTT [XGTACX_negctrl_site573] | 9.23
TAAATAAAAAAGAATACACACAGCATGCATAAATAT [CACACA_site237] | 10.1
CATATATATCGTAATGCACACATGTAATTTCATAAT [CACACA_site811] | 9.9
TCTGTATATTATTCAAGTACACAATATAAATATAAA [XGTACX_site7241] | 9.49
AAAAAATTCAAAAGGTGTACAACATTATATTATTCC [XGTACX_site5118] | 9.77
TATTGTTTTTTTTACTGTACACAAGTAAATGAAAAA [XGTACX_site790] | 9.45
GTATATAATTAAAGTTGTACCCTTAAAAAAGGGAAA [XGTACX_site7278] | 9.5
GATAACTTTTTTCTCACACACAAATATTTTAATCAT [CACACA_site7685] | 10
GAACAAATTAAATAGGTGCATTAACATGTTCTATTT [GTGCAC_site9729] | 9.83
AAAAATAAAAAAATAAATACGTATACATATATAATA [TGCATGCA_negctrl_site551] | 9.85
TAAATGTGAACAATAGAAGTAATAAGAAGAATAAAA [CACACA_negctrl_site1080] | 9.78
TTTATTTTTTGTGGCACACAGAAGAAACAAGAACAA [CACACA_site1696] | 9.73
AATGAATAATTATTTTGTACATAATATTATATTTAT [XGTACX_site5350] | 9.67
